Experimental data from PubChem BioAssay AID504706 (National Center for Advancing Translational Sciences (NCATS), 2011).
Out of some 320,000 compounds screened, about 200 (0.062%) were called active. This list was built around the results that the source calls inconclusive (neither active nor inactive); the mix of calls is not that of the screen. The call rests on the fitted dose curve; in most records, active means well fitted activation curve with a large enough effect; inconclusive means small, poorly fitted or top-dose-only effect; inactive means no such curve, though single readings can be large or run the other way. No potency is given beside an inconclusive call; the fits are too rough.

Experiment: qHTS assay for re-activators of p53 using a Luc reporter; further: nearly all actives have a fitted effect of over 45% in size; on activity change, positive = activation: % of control where 0% means no effect
Settings: H1299 p53-A138V BP100-luciferase reporter, luminescence, 24 h; series mostly up to 92.2 µM; activity change, positive = activation: at the top concentration
Outline: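 H1299 (p53-null), stable ts p53-A138V + BP100-Luc; 1000 cells/well, Opti-MEM/10% FBS; cpd 4 pt, 1:5; 24 h, 37 deg C, 5% CO2; detection reagent 10 min RT; luminescence.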
Potency means the concentration at half of the fitted maximal effect; tags describe the fitted curve by direction and shape.

Row | SMILES | activity change, positive = activation | Potency
1 | Cc1ccn2c(NCc3ccccc3)c(-c3cccs3)nc2c1 | inactive: 20.9% | 
2 | COc1cc(C)ccc1OCc1cc(C(=O)NCc2ccncc2)no1 |  | inconclusive [activator, partial curve, poor fit]
3 | O=C(NCCCO)c1cc2c(cn1)[nH]c1ccccc12 | inactive: 12.8% | 
4 | Cc1ccc2c(c1)-c1cc(C)nn1C(c1ccc3c(c1)OCO3)N2 (stereo not given) | inactive: -2.96% | 
5 | Cc1ccc(S(=O)(=O)N2CCN(C(=O)COC(=O)CNC(=O)c3ccc(C(C)(C)C)cc3)CC2)c(C)c1 | inactive: 9.42% | 
6 | CN(CC(=O)Nc1ccc(F)cc1)C(=O)c1ccc(N2C(=O)CCC2=O)cc1 | inactive: -0.0848% | 
7 | Cc1cc(-c2ccc(N3CCOCC3)cc2)nc2ccccc12 |  | inconclusive [activator, full curve, poor fit]
8 | CCCc1cc(C(=O)NCc2ccco2)no1 |  | inconclusive [activator, full curve, poor fit]
9 | CCOC(=O)/C(=N\Nc1ncnc2ccccc12)c1ccc(OC)cc1 |  | inconclusive [activator, partial curve, poor fit]
10 | Cc1nc2ncccn2c1-c1csc(Nc2ccc(S(N)(=O)=O)cc2)n1 |  | inconclusive [activator, single point]
11 | O=C(Nc1ccc(N2CCOCC2)c(F)c1)c1cccs1 |  | inconclusive [activator, partial curve, poor fit]
12 | CC1(C)NC(=O)N(CC(=O)N2CCN(c3ccc([N+](=O)[O-])cc3)CC2)C1=O | inactive: -0.165% | 
13 | Cc1cccc2c(SCC(N)=O)nc(-c3ccccc3)nc12 |  | inconclusive [activator, single point]
14 | CC1CCCCN1C(=O)CSc1nnc(-c2ccc(Cl)s2)o1 (stereo not given) |  | inconclusive [activator, partial curve, poor fit]
15 | COc1ccc(C2CC(c3ccc4ccccc4c3)=NN2C(=O)CSc2ncccn2)cc1 (stereo not given) |  | inconclusive [activator, partial curve, poor fit]
16 | CCN(C[C@H]1N[C@@](CC)(C(=O)OC)[C@H]2C(=O)N(Cc3ccccc3)C(=O)[C@@H]12)C(=O)c1ccc(F)cc1 | inactive: 4.32% | 
17 | Cc1cccn2cc(CNc3ccccc3)nc12 |  | inconclusive [activator, full curve, poor fit]
18 | COCCN(Cc1cc2cc(C)cc(C)c2nc1Cl)C(=O)Nc1ccccc1 |  | inconclusive [activator, single point]
19 | COc1cccc2sc(NN)nc12 | inactive: 1.44% | 
20 | COC(=O)c1ccccc1NC(=O)COC(=O)c1ccccc1N=Nc1ccc(N(C)C)cc1 |  | inconclusive [activator, partial curve, poor fit]
21 | N#C/C(=C\c1c(Cl)cccc1Cl)c1nc2ccccc2o1 | inactive: 2.79% | 
22 | Cc1c(OCC(F)(F)F)ccnc1CS(=O)c1nc2ccccc2[nH]1 (stereo not given) | inactive: 24.4% | 
23 | O=C(Nc1ccccc1)c1ccc2ccccc2n1 |  | inconclusive [activator, partial curve, poor fit]
24 | COc1ccc(-n2c(N)c(C(=O)NCc3ccco3)c3nc4ccccc4nc32)cc1 | inactive: -4.93% | 

Row | SMILES | activity change, positive = activation | Potency
25 | O=C1/C(=C/c2ccc(O)cc2)COc2ccccc21 |  | active: 39.8 µM
26 | CC(OC(=O)CCC(=O)c1cccs1)C(=O)NC1CCCCC1C (stereo not given) |  | inconclusive [activator, full curve, poor fit]
27 | O=C(N/N=C/c1ccc(-c2ccc(Cl)c(C(=O)O)c2)o1)c1cc2c(ccc3ccccc32)o1 | inactive: -3.21% | 
28 | CSc1ccccc1NC(=O)c1cc(-c2cccs2)on1 |  | inconclusive [activator, single point]
29 | COCCCN=C1NN=C(c2cc(C)n(-c3ccccc3)c2C)CS1 |  | inconclusive [activator, partial curve, poor fit]
30 | Cc1csc(NC(=O)c2ccc3nc[nH]c3c2)n1 | inactive: 14.2% | 
31 | O=c1c2c3c(sc2nc2n1CCCC2)CCCC3 |  | inconclusive [activator, partial curve, poor fit]
32 | CCC(=O)C1CCCN(C(=O)CCc2nnc(-c3ccc4c(c3)OCO4)o2)C1 (stereo not given) |  | inconclusive [activator, partial curve, poor fit]
33 | CCn1c2ccccc2c2cc(NC(=O)CSc3nnc(C4CC4)n3Cc3ccco3)ccc21 |  | inconclusive [activator, single point]
34 | N/C(=N\OC(=O)c1ccc(Cl)cc1)c1ccccn1 |  | inconclusive [activator, partial curve, poor fit]
35 | Cc1cccc(N2CCN(C(=O)Cn3cnc4c3c(=O)n(C)c(=O)n4C)CC2)c1C | inactive: -7.79% | 
36 | O=C(NNC(=O)c1ccccn1)c1ccc(OC(F)F)cc1 |  | inconclusive [activator, partial curve, poor fit]
37 | S=C(Nc1cccc(Br)c1)c1ccccc1 |  | inconclusive [activator, partial curve, poor fit]
38 | CC(C)C(=O)NC(c1cccc([N+](=O)[O-])c1)c1ccc2cccnc2c1O (stereo not given) | inactive: 27.2% | 
39 | O=C(Nc1ccc(Cl)cn1)c1cccc(F)c1 |  | inconclusive [activator, partial curve, poor fit]
40 | CCc1nnc(NC(=O)c2ccc(S(=O)(=O)N(CC)CC)cc2)s1 | inactive: 5.61% | 
41 | COc1ccc(Nc2nc(-c3ccccc3)cs2)cc1 |  | inconclusive [activator, full curve, poor fit]
42 | Cc1cc(C)n(S(=O)(=O)c2cc(C(=O)O)c(Cl)cc2Cl)n1 |  | inconclusive [activator, single point]
43 | Cc1cc(C(=O)N(C)C)sc1-c1ccccc1 |  | inconclusive [activator, full curve, poor fit]
44 | O=C(Oc1ccccc1F)c1ccc2c(=O)n3c(nc2c1)CCC3 | inactive: 7.88% | 
45 | Cc1cc(SCC(=O)N2CCC(c3noc4ccc(F)cc34)CC2)nc2ccccc12 | inactive: -7.61% | 
46 | Fc1cccc2sc(N3CCCCC3)nc12 |  | inconclusive [activator, partial curve, poor fit]
47 | Cc1cccc(C(=O)NNC(=O)c2n[nH]c(=O)c3ccccc23)c1C |  | inconclusive [activator, partial curve, poor fit]
48 | COc1cccc(C(=O)Nc2ccc(-c3nc4ccccc4o3)c(O)c2)c1 | inactive: 6.83% | 

Row | SMILES | activity change, positive = activation | Potency
49 | Cc1cc(C)nc(NC(=O)/C=C/c2cccs2)c1 |  | inconclusive [activator, partial curve, poor fit]
50 | O=C(N/N=C/c1cc(Br)ccc1O)C(c1ccncc1)N1CCOCC1 (stereo not given) |  | inconclusive [activator, partial curve, poor fit]
51 | CC(C)c1ccc(NC(=O)COC(=O)CSc2nnc(N)s2)cc1 |  | inconclusive [activator, full curve, poor fit]
52 | NS(=O)(=O)c1ccc(NC(=O)COC(=O)C2CC2)cc1 | inactive: 5.37% | 
53 | COc1ccc(CCCNC(=O)C2CCC(=O)N(Cc3ccccc3F)C2)cc1 (stereo not given) |  | inconclusive [activator, single point]
54 | COc1ccc(C(=O)Nc2ccccc2C(=O)N/N=C/c2ccccn2)cc1OC |  | inconclusive [activator, full curve, poor fit]
55 | COc1ccc2nc(/C=N/NC(=O)CCNC(=O)OC(C)(C)C)ccc2c1 |  | inconclusive [activator, partial curve, poor fit]
56 | S=C(NCCc1ccccn1)Nc1ccc(Cl)cc1 |  | inconclusive [activator, full curve, poor fit]
57 | CC1CC1C(=O)NCCc1ccc(Cl)cc1 (stereo not given) |  | inconclusive [activator, single point]
58 | CC(=O)c1cnc2cc(-c3ccc(Cl)cc3)nn2c1C |  | inconclusive [activator, partial curve, poor fit]
59 | Oc1c(/C=N/c2ccccn2)sc2ccccc12 |  | inconclusive [activator, partial curve, poor fit]
60 | Clc1ccc(OCc2cc(-c3ccccc3)no2)cc1Cl |  | inconclusive [activator, single point]
61 | Cc1ccc(-c2csc(N3C(=N)SCC3=O)n2)cc1 |  | inconclusive [activator, full curve, poor fit]
62 | CCCn1nc(Oc2nc(SC)nc(N(C)C)n2)ccc1=O | inactive: -10.7% | 
63 | C#CCN(C(=O)c1ccc(OC)c(OC2CCN(C(C)C)CC2)c1)C1CCCCC1 |  | inconclusive [activator, partial curve, poor fit]
64 | Cc1cc(NC(=O)COc2cccc(C)c2C)no1 |  | inconclusive [activator, single point]
65 | C/C(=N\NC(=O)c1nnn(-c2nonc2N)c1CN(C)c1ccccc1)c1ccccn1 |  | inconclusive [activator, full curve, poor fit]
66 | Oc1oc(-c2ccco2)nc1C=Nc1ccccc1 |  | inconclusive [activator, single point]
67 | O=C(NNC1=NS(=O)(=O)c2ccccc21)c1ccc(Cl)cc1 | inactive: -2.25% | 
68 | COc1ccc(C2c3[nH]c4ccccc4c3CCN2C(=O)Cc2nonc2C)c(F)c1 (stereo not given) |  | inconclusive [activator, full curve, poor fit]
69 | O=C(N/N=C/c1cccs1)c1cnccn1 |  | inconclusive [activator, single point]
70 | O=C(COC(=O)c1n[nH]c2ccccc12)Nc1ccc([N+](=O)[O-])cc1 |  | inconclusive [activator, single point]
